For 42 sequences, binding signal results are on record in publication PMC7819943, “Rice protein-binding microarrays: a tool to detect cis-acting elements near promoter regions in rice”.

Some of the results follow.

The target of the test is T1, OsWOX13 (Oryza sativa, UniProt Q5QMM3 1-267).
T1 sequence: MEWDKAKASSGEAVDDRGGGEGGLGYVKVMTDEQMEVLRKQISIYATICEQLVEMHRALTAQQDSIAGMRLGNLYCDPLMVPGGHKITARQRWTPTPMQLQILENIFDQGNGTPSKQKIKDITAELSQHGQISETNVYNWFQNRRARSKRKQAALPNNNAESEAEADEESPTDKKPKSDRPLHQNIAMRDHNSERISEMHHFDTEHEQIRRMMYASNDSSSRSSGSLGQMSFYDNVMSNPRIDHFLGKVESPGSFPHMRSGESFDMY
The test is described as follows: protein-binding microarray (RPBM); PBS, 2% BSA, 51.3 ng/ul salmon testes DNA, 50 uM zinc acetate, 200 nM TF, 25 C, 1 h; high values mean tight binding. Conditions: protein: recombinant; tags: N-terminal polyhistidine and DsRed monomer fusion (pET32a); label: CyDye5-dUTP incorporated in the synthesized complementary strand; 3' TTTTT single-stranded linker to array surface; dsDNA, one strand shown. A digest of the protocol:
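The binding signal for each feature is its fluorescence intensity in arbitrary units. An Axon 4000B scanner was used to read a custom Agilent array that had been made double-stranded with Cy5-dUTP primer extension, blocked with 2% BSA, incubated at 25 °C for 1 h with 200 nM protein in PBS, 2% BSA, salmon testes DNA and 50 µM zinc acetate, and washed. The protein was an N-terminal polyhistidine–DsRed transcription factor fusion from E. coli BL21-CodonPlus, purified on Ni–NTA.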
For “ATCTGATTTTATATTCTTATATTTTAGGATGGAGGGAGTACGGAGTCACCTAGTGCAG”, the binding signal was 12900 fluorescence intensity (a.u.).
As for “TAAAATTTGATATTTTAGTGGTAATCTGAACGGGTCCTCGCGGAGTCACCTAGTGCAG”, the figure is 4810 fluorescence intensity (a.u.).
Consider “TCTAAATTTTCATGACATGGTACCATACTACAAATCCATCCGGAGTCACCTAGTGCAG”, for which the binding signal was 9500 fluorescence intensity (a.u.).
The value for “CGCCTTTCCATCATCATTTACGCCCAACCCCAACACATGTCGGAGTCACCTAGTGCAG” was 3750 fluorescence intensity (a.u.).
Take “AGTTACATGCAAATTATAGTGTAATTATATATAAGTTACACGGAGTCACCTAGTGCAG”: the binding signal was 8130 fluorescence intensity (a.u.).
On to “AGAAAACCAATTACACAATTTGTATGTAAATTATAAGATGCGGAGTCACCTAGTGCAG”, for which the binding signal is 4570 fluorescence intensity (a.u.).
As for “GTTATATTGACAGCAAACATTATGGCCAGCTTGGTCTCACCGGAGTCACCTAGTGCAG”, the figure is 30500 fluorescence intensity (a.u.).
Turning to “TATGTTGACAAATTTGAGGCGGTTTGTATCTTTCACTTTCCGGAGTCACCTAGTGCAG”, the binding signal is 3840 fluorescence intensity (a.u.).
As for “CACATTAAATATTTAGACACTAATTATAAATATTAAATATCGGAGTCACCTAGTGCAG”, the binding signal is 3270 fluorescence intensity (a.u.).
Turning to “TAATTAATTAAGTTTTAATTATTACAAACTTGAGAAATATCGGAGTCACCTAGTGCAG”, the binding signal was 23300 fluorescence intensity (a.u.).
As to “TGGCGTGATTTGATTAATAGCGGAAAGAGATTCCACATTCCGGAGTCACCTAGTGCAG”, the binding signal was 26400 fluorescence intensity (a.u.).
On to “AATTGAATTGAAACTATTGATGAATGAATTCACCAGCCAGCGGAGTCACCTAGTGCAG”, for which the binding signal was 16900 fluorescence intensity (a.u.).
“ATGTTAAATGACATAGATGAATAAATTTAGTTACATGTGTCGGAGTCACCTAGTGCAG”: the binding signal is 14500 fluorescence intensity (a.u.).
As for “CAAAATTGGCTCCTCACCCTTGTGCAGATGCAGCCTTCTTCGGAGTCACCTAGTGCAG”, the binding signal was 13700 fluorescence intensity (a.u.).
Turning to “AAAATATAATTAGAACAATAATGATGATACGTATATATTGCGGAGTCACCTAGTGCAG”, the binding signal was 18700 fluorescence intensity (a.u.).
As for “ATATAAAATTGATGTTATTAGATGTTTTAAATAATATCTACGGAGTCACCTAGTGCAG”, the figure is 12300 fluorescence intensity (a.u.); as for “CTCGAGGTCTTGATTAGCTTGTACAGTTTGTCCTCGAGCTCGGAGTCACCTAGTGCAG”, 7820 fluorescence intensity (a.u.).
As to “ATATATGGTTAACTGTAATCAGGACCTACCCTGACCAGATCGGAGTCACCTAGTGCAG”, the binding signal is 4980 fluorescence intensity (a.u.).
As for “GCAGTCAATTTTCACCACCAAACTCAACTGGCACCATCATCGGAGTCACCTAGTGCAG”, the figure is 3560 fluorescence intensity (a.u.).
Turning to “ATAGCTTTGATTACTATTTCTATTATAATATATATAGAAACGGAGTCACCTAGTGCAG”, the binding signal is 7780 fluorescence intensity (a.u.).
Regarding “TGTTAATTTGTGCTTCTGGGGTCCTTGTTTATGTATGGCCCGGAGTCACCTAGTGCAG”, the binding signal was 28500 fluorescence intensity (a.u.).
As for “GATACTCCAAATGATTTTAAATGGAAAAGTGATAAACTACCGGAGTCACCTAGTGCAG”, the binding signal is 3210 fluorescence intensity (a.u.).
Turning to “TATATCCAATTCAAATTTTAATTTGAATTCAAATAGTTTCCGGAGTCACCTAGTGCAG”, the binding signal was 3460 fluorescence intensity (a.u.).
The value for “ATTCGAGACAAGATCAATTAATTGCAAGAATGATCCATCACGGAGTCACCTAGTGCAG” was 13800 fluorescence intensity (a.u.); that for “GGTTGAGGGTGATGATTAGTAAGATACTGGGGATGCTCGACGGAGTCACCTAGTGCAG” was 9270 fluorescence intensity (a.u.); that for “CTACCAAATAATTGGCAATTTAAATAGTACTTTGTAGATGCGGAGTCACCTAGTGCAG” was 38400 fluorescence intensity (a.u.).
For “ATCTGATTGTCGGATGATCGTGGGTCAGTCTTCTATCAAGCGGAGTCACCTAGTGCAG”, the binding signal was 41400 fluorescence intensity (a.u.).
Regarding “ATAGCTAATTAAGACCGGTTAATTTTGGGCTACAATGACTCGGAGTCACCTAGTGCAG”, the binding signal is 37600 fluorescence intensity (a.u.).
In the case of “TTAATTACTTCTTCAAGTAATTACTATTTATATTGGACTGCGGAGTCACCTAGTGCAG”, the binding signal was 13200 fluorescence intensity (a.u.).
Regarding “TCAATTTATATTGGTTTTAATAATTGAAAGGACGTGATATCGGAGTCACCTAGTGCAG”, the binding signal was 8780 fluorescence intensity (a.u.).
As to “GAGGCGCATTCAATCATGAGAAGGAAAAGGAGGGACTCCACGGAGTCACCTAGTGCAG”, the binding signal was 3350 fluorescence intensity (a.u.).
Regarding “AGTACTAATTACTCGAGACGCATACTAATAGCCGTATAGACGGAGTCACCTAGTGCAG”, the binding signal was 15500 fluorescence intensity (a.u.).
For the sequence “GCTTTTGATAGATGTCTAAGAAGCAAATAACTTAGTCTTTCGGAGTCACCTAGTGCAG”, the binding signal is 12200 fluorescence intensity (a.u.).
With “AATAAATTTAAAATTGCAATCGATATTAGCAAAATCCTATCGGAGTCACCTAGTGCAG”, the binding signal was 20700 fluorescence intensity (a.u.).
The value for “TTGCATGTTTGTGGATTGATACATTAGATATTGATCTATCCGGAGTCACCTAGTGCAG” was 3540 fluorescence intensity (a.u.); that for “ACACTGGTGATTGGTTTGAATGCTTGCTCACGAGTTGGGTCGGAGTCACCTAGTGCAG” was 45200 fluorescence intensity (a.u.).
The value for “TGACTGATCTAATTACTGAATGTTTTATGAATTTCTGCAGCGGAGTCACCTAGTGCAG” was 13600 fluorescence intensity (a.u.).
As to “ATGATTTGACGCACATCCATCCACTCAGGAACATCGAATTCGGAGTCACCTAGTGCAG”, the binding signal is 15000 fluorescence intensity (a.u.).
With “TCCCTGATTAGAATTCCATTCCTTTAACAAATCAGCATTCCGGAGTCACCTAGTGCAG”, the binding signal was 37300 fluorescence intensity (a.u.).
“CTAGGTAACTAAATTAATCTTCTTATCATTTTGGAATTTACGGAGTCACCTAGTGCAG”: the binding signal is 3430 fluorescence intensity (a.u.).
Consider “TAAAATTTGAGTAAATTTCACAAAACAACAGGTATTCTGACGGAGTCACCTAGTGCAG”, for which the binding signal was 4940 fluorescence intensity (a.u.).
The value for “CGTGATTAATGTTGGATGCTATCTGCTATTTATACCTGCACGGAGTCACCTAGTGCAG” was 43200 fluorescence intensity (a.u.).
